# Data from PubChem BioAssay (Tox21).
# Values joined by “and” are separate entries in the source; they are usually repeats but may differ in a detail not shown here. Identical values can stand only once. Inconclusive means that the source gave no clear call. Such entries were picked first, then a sample of the others. Where the call is inconclusive, the potency comes from a doubtful curve fit. Active and inactive are the calls of the source. Calls follow the shape of the dose curve; as a rule, active = well fitted cell-killing curve with a large enough effect in the repeat runs; inconclusive = weak or mixed curves, or effect the other way; inactive = flat fitted curve, though single readings scatter.
# Assay: qHTS RealTime-Glo MT Cell Viability Assay in HEK293 cells - 32 hour (AID 1224868); also: nearly all actives have a fitted effect of over 50% in size
# Details: RealTime-Glo luminescence; series mostly up to 76.8 µM
# From the text: National Center for Advancing Translational Sciences [NCATS]
# NIH Chemical Genomics Center [NCGC]
# U.S. Environmental Protection Agency [EPA]
# National Institutes of Environmental Health Sciences [NIEHS]
# National Toxicology Program [NTP]
# U.S. Food and Drug Administration [FDA]
# Measure of cell viability is critical in the cell-base assay. Analysis of cell viability is necessary for the characterization of cell responses to cytotoxic drugs and environmental stress. A RealTime-Glo MT Cell Viability Assay to monitor cell viability in real time of continues cell culture during 40 hours of compound treatment was used to screen Tox21 10K library compounds in Hek293 cells. The RealTime-Glo MT Cell Viability Assay is a nonlytic, homogeneous, bioluminescent method to measure cell viability in real time using a simple, plate-based method. The assay involves adding NanoLuc luciferase and a cell-permeant prosubstrate to cells in culture. Viable cells reduce the proprietary prosubstrate to generate a substrate for NanoLuc luciferase. This substrate diffuses from cells into the surrounding culture medium, where it is rapidly used by the NanoLuc Enzyme to produce a luminescent signal. The signal correlates with the number of viable cells, making the assay well suited for cytotoxicity studies.
# Tox21 Assay Protocol Summary:
# The mixture of Hek293 cell suspension and reagents were dispensed at 600cells/6 ul/well in 1536-well tissue culture treated black solid bottom plates using a Multidrop dispenser. After the assay plates were incubated at a 37 C/5% CO2 incubator for 5 hours, 23 nL of compounds dissolved in DMSO, positive and negative controls was transferred to the assay plate by a pintool work station. The plates were incubated at 37 C for 40 hours. The luminescence intensity were measured at 0h, 8h, 16h, 24h, 32h and 40h time points using ViewLux plate reader during compound treatment.
# Potency is read from the fitted curve at half-maximal effect; tags tell the direction and shape of the fitted curve.
row,Structure (SMILES),Potency
1,Oc1c(Cl)cc(Cl)c2cccnc12,"inconclusive: 9.52 µM [cytotoxic, full curve]"
2,O=C1c2ccccc2C(=O)N1SC1CCCCC1,active: 24.5 µM and active: 38.9 µM
3,c1ccc(Nc2cccc3ccccc23)cc1,"inconclusive: 39.4 µM [cytotoxic, partial curve]"
4,CCCCOCCOCCOCc1cc2c(cc1CCC)OCO2,inconclusive: 19.7 µM [cytotoxic]
5,CCCCC(CC)COC(=O)c1ccc(O)cc1 (stereo not given),"inconclusive: 21.9 µM [cytotoxic, partial curve]"
6,NCc1cccc(C2CCN(C(=O)c3ccc(C#Cc4ccccc4F)o3)CC2)c1,"inconclusive: 54.9 µM [cytotoxic, single point]"
7,CC(C)(c1cc(Br)c(OCCO)c(Br)c1)c1cc(Br)c(OCCO)c(Br)c1,active: 13.5 µM
8,CCCCC(CC)COC(=O)CC(C(=O)OCC(CC)CCCC)S(=O)(=O)O (stereo not given),"inconclusive: 52.9 µM [cytotoxic, single point] and inconclusive: 43.6 µM [cytotoxic, partial curve]"
9,O=c1cc(-c2ccccc2)oc2ccccc12,active: 15.5 µM and active: 6.88 µM
10,CC[C@H]1O[C@]2(CC[C@@H]1C)C[C@@H]1C[C@@H](C/C=C(\C)C[C@@H](C)/C=C/C=C3\CO[C@@H]4[C@H](O)C(C)=C[C@@H](C(=O)O1)[C@]34O)O2,active: 24.3 µM
11,CCCCc1oc2ccccc2c1C(=O)c1cc(I)c(OCCN(CC)CC)c(I)c1,active: 34.9 µM
12,C[C@@H]1CC(=O)NN=C1c1ccc(NN=C(C#N)C#N)cc1,"inconclusive: 26.8 µM [cytotoxic, partial curve, poor fit] and inconclusive: 23.9 µM [cytotoxic, partial curve, poor fit]"
13,Cc1c(C)n(Cc2ccccc2)c2ccc(C(=O)OCCN(C)C)cc12,"inconclusive: 10.7 µM [cytotoxic, partial curve]"
14,CC[C@H](C)C(=O)O[C@H]1C[C@@H](C)C=C2C=C[C@H](C)[C@H](CC[C@@H]3C[C@@H](O)CC(=O)O3)[C@H]21,"inconclusive: 55.7 µM [cytotoxic, partial curve]"
15,NC(N)=NC(N)=NCCc1ccccc1,"inconclusive: 9.72 µM [cytotoxic, full curve] and inconclusive: 6.16 µM [cytotoxic, full curve]"
16,ClC1=C(Cl)C(Cl)(Cl)C(Cl)=C1Cl,"inconclusive: 61.7 µM [cytotoxic, single point]"
17,CC(C)CCCCCCc1ccc(O)cc1,"active: 2.23 µM and inconclusive: 54.9 µM [cytotoxic, single point]"
18,CCCCCCCCCCCCOC(=O)c1cc(O)c(O)c(O)c1,active: 3.87 µM and active: 3.47 µM
19,Cc1cc(O)c(C(C)(C)C)cc1Sc1cc(C(C)(C)C)c(O)cc1C,active: 21.8 µM
20,CCN(CC)C(=S)SSC(=S)N(CC)CC,active: 174 nM and active: 89.1 nM and active: 13.4 µM

row,Structure (SMILES),Potency
1,COc1cc(Cc2cnc(N)nc2N)cc(OC)c1OC,"inconclusive: 48.9 µM [cytotoxic, partial curve, poor fit]"
2,c1ccc(Sc2ccccc2)cc1,"inconclusive: 0.219 µM [cytotoxic, single point]"
3,O=C(NO)c1ccccc1,"inconclusive: 11.7 µM [rising, full curve, poor fit]"
4,c1ccc2n[nH]nc2c1,inactive
5,c1ccc2c(c1)CCc1ccccc1N2,"inconclusive: 39.1 µM [cytotoxic, partial curve, poor fit]"
6,CS(=O)(=O)CCNCc1ccc(-c2ccc3ncnc(Nc4ccc(OCc5cccc(F)c5)c(Cl)c4)c3c2)o1,"inconclusive: 21.3 µM [cytotoxic, partial curve]"
7,CCOc1ccc([N+](=O)[O-])cc1,"inconclusive: 49.7 µM [cytotoxic, partial curve]"
8,C[C@]12CC[C@@H]3c4ccc(O)cc4CC[C@H]3[C@@H]1CCC2=O,"inconclusive: 6.93 µM [cytotoxic, full curve] and inconclusive: 4.29 µM [cytotoxic, full curve] and inconclusive: 21.3 µM [cytotoxic, partial curve, poor fit]"
9,CCN=c1cc2oc3cc(NCC)c(C)cc3c(-c3ccccc3C(=O)OCC)c-2cc1C,active: 1.09 µM and active: 1.38 µM
10,CCCCCCCCOC(=O)c1ccc(O)cc1,"active: 27.4 µM and inconclusive: 19.5 µM [cytotoxic, full curve]"
11,Cc1c(C)c2c(c(C)c1O)CCC(C)(COc1ccc(CC3SC(=O)NC3=O)cc1)O2 (stereo not given),"inconclusive: 9.52 µM [cytotoxic, partial curve]"
12,CC(C)(C)c1ccc(O)c(C(C)(C)C)c1,"inconclusive: 30.9 µM [cytotoxic, partial curve, poor fit]"
13,CCCC(c1cc(C(C)(C)C)c(O)cc1C)c1cc(C(C)(C)C)c(O)cc1C,active: 19.7 µM
14,O=c1n(CC2CO2)c(=O)n(CC2CO2)c(=O)n1CC1CO1 (stereo not given),"inconclusive: 971 nM [cytotoxic, full curve] and inconclusive: 2.19 µM [cytotoxic, full curve]"
15,O=C(Nc1ccc(Cl)cc1)Nc1ccc(Cl)c(C(F)(F)F)c1,active: 4.77 µM
16,Clc1ccc(C(c2ccccc2Cl)C(Cl)Cl)cc1 (stereo not given),"inconclusive: 38.9 µM [cytotoxic, partial curve] and inconclusive: 30.1 µM [cytotoxic, single point]"
17,CN1CCN(CCCN2c3ccccc3Sc3ccc(Cl)cc32)CC1,"inconclusive: 23.9 µM [cytotoxic, partial curve, poor fit]"
18,COc1ccc2cc([C@H](C)C(=O)O)ccc2c1,inactive
19,CCOC(=O)C1=C(C)NC(C)=C(C(=O)OCC)C1c1ccccc1/C=C/C(=O)OC(C)(C)C,"inconclusive: 19 µM [cytotoxic, partial curve]"
20,CCCCCCCC/C=C/CCCCCCCC1=NCCN1CCO,active: 19.5 µM
